Out of some 410,000 compounds screened, about 6,400 (1.6%) were called active. The shares of active, inactive and inconclusive entries below differ from those in the screen. Calls follow the shape of the dose curve; as a rule, active = well fitted inhibition curve with a large enough effect; inconclusive = small, poorly fitted or top-dose-only effect; inactive = no such curve, though single readings can be large or run the other way. Potencies of inconclusive entries are left out as doubtful fits.
Biological target: Glucagon-like peptide 1 receptor (Homo sapiens) (UniProt P43220)
Assay: qHTS of GLP-1 Receptor Inverse Agonists (Inhibition Mode); also: nearly all actives have a fitted effect of over 55% in size
Conditions: HEK293 GLP-1R CRE-luciferase, luminescence, 24 h, GLP-1R form is constitutively active; activity change, negative = inhibition: at 38.3 µM (top of the series) unless noted
Procedure, shortened: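 Inverse agonists were sought by their lowering of basal cAMP reporter luciferase output in HEK293 cells stably carrying constitutively active human GLP-1R, after 24 h compound treatment.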
% is scaled to controls: 0 for no effect and ±100 for the full control effect; potency is read from the fitted curve at half-maximal effect; tags tell the direction and shape of the fitted curve.

UniProt P43220, sequence (P43220 whole entry, looked up): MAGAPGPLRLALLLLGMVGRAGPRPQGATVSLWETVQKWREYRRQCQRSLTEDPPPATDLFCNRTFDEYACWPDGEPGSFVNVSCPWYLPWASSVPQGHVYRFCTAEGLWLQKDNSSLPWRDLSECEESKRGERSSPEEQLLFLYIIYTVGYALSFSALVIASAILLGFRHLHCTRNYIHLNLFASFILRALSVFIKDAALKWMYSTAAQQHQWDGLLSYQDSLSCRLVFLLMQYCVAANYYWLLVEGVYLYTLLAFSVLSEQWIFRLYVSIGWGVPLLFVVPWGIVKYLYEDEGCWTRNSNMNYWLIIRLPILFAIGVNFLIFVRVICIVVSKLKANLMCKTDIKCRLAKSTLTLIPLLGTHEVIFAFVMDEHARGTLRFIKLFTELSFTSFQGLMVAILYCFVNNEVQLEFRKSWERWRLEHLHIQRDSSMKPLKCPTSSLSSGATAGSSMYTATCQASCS

Compound | Potency | activity change, negative = inhibition
CCCCNC(=O)C1CCC(CNS(=O)(=O)c2c(C)cc(C)cc2C)CC1 (stereo not drawn) | inconclusive [inhibitor, single point] | –
COc1ccc(S(=O)(=O)N2CCCCC2)cc1NC(=O)CN(C)C1CCCCC1 | inconclusive [inhibitor, partial curve, poor fit] | –
O=C(Cc1ccccc1)Nc1nc(=O)c2ccccc2s1 | – | inactive: 11.9%
CCN(CCCNC(=O)c1cc2c(=O)[nH]c3ccc(C)cc3c2s1)Cc1ccccc1 | inconclusive [inhibitor, single point] | –
Cc1ccc(NC(=O)c2ccc(S(=O)(=O)N3CCCC3)cc2)cc1 | inconclusive [inhibitor, full curve, poor fit] | –
Cc1ccc(-c2csc(NC(=O)C[n+]3cc(-c4ccccc4)n4c3CCC4)n2)cc1 | inconclusive [inhibitor, single point] | –
Fc1ccc(-c2nnc(CN3CCC(c4nc5ccccc5s4)CC3)o2)cc1 | inconclusive [inhibitor, single point] | –
Cc1cccc(N2CCN(C(=S)Nc3ccc4nc(N5CCOCC5)cc(C)c4c3)CC2C)c1 (stereo not drawn) | inconclusive [inhibitor, partial curve] | –
CCOC(=O)N1CCN(C(=O)C[C@@H]2C[C@@]3(C(=O)OC)CC(C)(C)CC=C3N(Cc3cccc4ccccc34)C2=O)CC1 | inconclusive [inhibitor, partial curve, poor fit] | –
Cc1nn(-c2ccccc2)c2[nH]c(=O)c(CNCC3CCCO3)cc12 (stereo not drawn) | – | inactive: 12.2%
CC(C)C[C@@H]1CC2=C(C(=O)OC(C)(C)O2)[C@H](CCc2ccccc2)O1 | inconclusive [inhibitor, single point] | –
NC[C@H](O)c1ccc(O)c(O)c1 | – | inactive: 14.4%
O=S(=O)(O)c1cc(O)c(N=Nc2ccc(O)cc2O)c2ccccc12 | – | inactive: 23.7%
COc1ccc(N2C(=O)c3ccccc3NC2(C)C)cc1 | – | inactive: -6.85%
O=C(c1ccccc1O)N1N=C(c2ccccc2)CC1(O)C(F)(F)F (stereo not drawn) | inconclusive [inhibitor, full curve, poor fit] | –
COc1ccc(S(=O)(=O)N2CCCC(C(=O)N3CCN(Cc4ccccc4)CC3)C2)cc1Cl (stereo not drawn) | inconclusive [inhibitor, single point] | –
COc1ccc(Br)cc1CN1CCN(C(=O)c2cccc(F)c2)CC1 | inconclusive [inhibitor, partial curve, poor fit] | –
Cc1cccc(-c2noc(-c3csc([C@@H]4C[C@H](O)[C@@H](CO)O4)n3)n2)c1 | – | inactive: -16.1%
COc1ccc(C(C#N)N2CCC(c3ccccc3)=N2)cc1OC (stereo not drawn) | – | inactive: 53.3%
CCN1CCN(c2cc(N3CCN(C(=O)c4ccco4)CC3)c3c4c(onc24)-c2ccccc2C3=O)CC1 | inconclusive [inhibitor, partial curve] | –
CCOc1ccc(-n2c(SC(C)C(=O)OC)nc3c([nH]c4ccccc43)c2=O)cc1 (stereo not drawn) | inconclusive [inhibitor, full curve, poor fit] | –
Cn1nc(-c2ccc(Cl)cc2)cc1NC(=O)Nc1ccccc1 | inconclusive [inhibitor, single point] | –
CCN(CC)S(=O)(=O)c1cnccc1N1CCN(c2cccc(Cl)c2)CC1 | inconclusive [inhibitor, single point] | –

Compound | Potency | activity change, negative = inhibition
COc1ccc(C2Nc3ccccc3C(=O)N2Cc2ccccc2)cc1 (stereo not drawn) | inconclusive [inhibitor, single point] | –
CCc1ccc2oc(C(=O)Nc3nc(-c4ccccc4)ns3)c(C)c2c1 | – | inactive: 15%
CNC[C@@H]1OCc2ccccc2-c2c(n(C)c3ccccc23)C(=O)N([C@H](C)CO)C[C@H]1C | inconclusive [inhibitor, single point] | –
O=C(Nc1nc(-c2nc3ccccc3s2)cs1)C1COc2ccccc2O1 (stereo not drawn) | inconclusive [inhibitor, partial curve, poor fit] | –
Cc1ccc(OC(C)C(=O)NCC2(N3CCOCC3)CCCCC2)cc1C (stereo not drawn) | inconclusive [inhibitor, single point] | –
Cc1c(C(=O)NC2CCN(Cc3ccccc3)C2)oc2c(Cl)cccc12 (stereo not drawn) | inconclusive [inhibitor, single point] | –
Cc1ccc(C)c(Oc2nnnn2-c2ccccc2)c1 | inconclusive [inhibitor, full curve, poor fit] | –
COC(=O)N/N=C/c1cc([N+](=O)[O-])cc(Br)c1O | – | inactive: -10.5%
CN(C)C(CNC(=S)Nc1cccc(Cl)c1)c1ccccc1 (stereo not drawn) | inconclusive [inhibitor, single point] | –
O=C(CCCNC(=O)c1ccc(Cl)cc1)Nc1cccc(F)c1 | inconclusive [inhibitor, single point] | –
O=C(/C=C/c1ccc(F)cc1)NC(=S)N1CCOCC1 | – | inactive: -19.4%
COc1ccc(NC(=O)c2coc3ccccc23)cc1OC | – | inactive: 11.7%
COC(=O)c1cccc(C(=O)Nc2ccc(F)cc2)n1 | – | inactive: -19%
CCN1/C(=C/c2ccc3ccccc3[n+]2CCCS(=O)(=O)[O-])C=Cc2cc(C)ccc21 | inconclusive [inhibitor, partial curve, poor fit] | –
COc1cccc(N2CCN(c3ncc4c(n3)CCN(Cc3ccc(Br)cc3)C4)CC2)c1 | inconclusive [inhibitor, partial curve, poor fit] | –
COc1cc(C(=O)OC2CC3CCC2(C)C3(C)C)ccc1OC(C)=O (stereo not drawn) | inconclusive [inhibitor, single point] | –
Cc1ccc(-c2noc(CSc3nnc(Cc4ccccc4)n3-c3ccc(Cl)cc3)n2)cc1 | inconclusive [inhibitor, single point] | –
NC(=O)Cn1c(=O)n(CCCC(=O)NC2CCN(Cc3ccccc3)CC2)c(=O)c2ccccc21 | – | inactive: 0.981%
COc1ccc(CN2CCN(Cc3cccc(Oc4ccccc4)c3)CC2)c(OC)c1OC | inconclusive [inhibitor, partial curve] | –
Cc1ccc(Cn2c(=O)c3cccnc3n(Cc3ccc(F)cc3)c2=O)cc1 | – | inactive: 40.8%
COc1ccc(C(=O)C=Cc2ccc3c(c2)OCO3)cc1OC | – | inactive: 104%
COc1ccc(-c2csc(-c3cccs3)n2)c(OC)c1 | inconclusive [inhibitor, single point] | –
Cc1ccc(NC(=O)CN(C)C(=O)c2cccnc2Nc2cccc(C(F)(F)F)c2)cc1 | inconclusive [inhibitor, full curve, poor fit] | –

Compound | Potency | activity change, negative = inhibition
Cc1cc(C)c(NC(=O)c2oc3ccccc3c2COc2ccccc2)c(C)c1 | inconclusive [inhibitor, full curve] | –
Cc1cc(/C=N/N2CCN(C)CC2)c(C)n1-c1ccccc1F | – | inactive: 0%
Cc1ccc(OCC(=O)Nc2ccc3c(c2)OCCO3)cc1C | inconclusive [inhibitor, single point] | –
COc1ccc(CNC(=O)[C@H](C)N2C(=O)N3CCc4c([nH]c5ccccc45)[C@@]3(C)C2=O)cc1OC | inconclusive [inhibitor, partial curve] | –
COc1ccc(C(=O)NCCCCc2ccccc2)cc1 | inconclusive [inhibitor, partial curve, poor fit] | –
O=C(NCCCN1CCOCC1)c1ccc2c(c1)N(Cc1ccccc1)CCS2 | inconclusive [inhibitor, partial curve, poor fit] | –
COc1ccccc1-c1cc(C(=O)NC2CCCC2)no1 | inconclusive [inhibitor, partial curve, poor fit] | –
Cc1ccc(C(=O)O)cc1NCc1ccncc1 | – | inactive: 11.7%
Cc1ccc(S(=O)(=O)N2[C@@H](c3ccccc3F)C(C(=O)O)=CC[C@H]2c2ccc(Cl)c(Cl)c2)cc1 | inconclusive [inhibitor, partial curve, poor fit] | –
S=C(Nc1ccc(Oc2ccccc2)cc1)N1CCOCC1 | – | inactive: 13.7%
COc1ccc(CNC(=O)CN2CCN(C(c3ccccc3)c3ccccc3)CC2)cc1 | active: 12.6 µM | –
O=C(COC(=O)C1(c2ccc(F)cc2)CCCC1)N1CCc2ccccc21 | inconclusive [inhibitor, partial curve] | –
O=C(CNC(=O)Cc1cccc2ccccc12)NCc1ccc(F)cc1 | inconclusive [inhibitor, partial curve, poor fit] | –
Cc1cc(C)c(OCC(=O)Nc2ccc(NC(=O)c3ccco3)cc2)c([N+](=O)[O-])c1 | – | inactive: -5.06%
O=C(COc1ccc2c(-c3ccccc3)cc(=O)oc2c1)NCCCn1ccnc1 | inconclusive [inhibitor, single point] | –
CC(C)C1NC2(C(=O)c3ccccc3C2=O)C2C(=O)N(c3ccc(F)cc3)C(=O)C12 (stereo not drawn) | – | inactive: -5.54%
Cc1ccc(SCc2cn3cc(Cl)ccc3n2)cc1 | inconclusive [inhibitor, single point] | –
Cc1cccc(CSCCNC(=O)CN(c2ccccc2)S(=O)(=O)N(C)C)c1 | – | inactive: -20%
O=C(OCc1ccccc1F)c1cc(S(=O)(=O)N2CCCCC2)ccc1N1CCOCC1 | inconclusive [inhibitor, partial curve, poor fit] | –
Cc1ccc(S(=O)(=O)NCCCCCC(=O)Nc2nccs2)cc1 | – | inactive: 0.516%
CC(c1ccccc1)N1C(=O)c2ccc(C(=O)Nc3ccc(Br)cc3C(=O)O)cc2C1=O (stereo not drawn) | – | inactive: 2.73%
Fc1ccc(-c2nc3ccc(Cl)cn3c2Cc2cccc(F)c2)cc1 | inconclusive [inhibitor, single point] | –
